# Source: PubChem BioAssay AID1963576 (National Center for Advancing Translational Sciences (NCATS), 2024)
# The campaign covered roughly 46,000 compounds. About 60 (0.1%) were called active. About 3% were inconclusive and are not listed. The call rests on the fitted dose curve; in most records, active means well fitted inhibition curve with a large enough effect; inconclusive means small, poorly fitted or top-dose-only effect; inactive means no such curve, though single readings can be large or run the other way. The list shows a part of the results.
# Experiment: Primary qHTS assay for Inhibitors of ovarian cancer metastasis using an organotypic tumor microenvironment (TME) model. Further: nearly all actives have a fitted effect of over 65% in size.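 On activity change, negative = inhibition: plate controls were DMSO wells for no effect and tomatine positive control wells for full effect.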
# Conditions: SKOV3ip1-GFP adhesion/invasion on 3D omental model, fluorescence; series mostly up to 45.8 µM; activity change, negative = inhibition: at the top concentration
# In short: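 qHTS, 4-pt dose (0.36-46 umol/L); SKOV3ip1-GFP, 1,200 cells/well, no FBS; primary omental fibroblast/mesothelial co-culture 48 h pre-grown; 2 h RT + 16 h 37 C; PBS wash, 4% PFA; GFP count 488/509 nm.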
SMILES,outcome,"activity change, negative = inhibition"
CCOc1cccc2cc(-c3cn4c(n3)sc3cc(C)ccc34)c(=O)oc12,inactive,–
Cc1ccnc(NS(=O)(=O)c2ccc(NC(=O)C(C)(C)Oc3ccc(Cl)cc3)cc2)n1,inactive,–
COc1ccc(OCc2nc3ccccc3n2C(C)c2ccccc2)cc1 (stereo not drawn),–,inactive: 23.3%
Cc1ccccc1OC(=O)c1snnc1C,–,inactive: 15.7%
O=C(Cc1ccccc1)N(Cc1cccnc1)c1nc2c(F)cccc2s1,–,inactive: 9.11%
O=C(Nc1ccc(Cl)cc1F)c1oc(=O)c2ccccc2c1-c1ccccc1,–,inactive: -8.13%
O=C(NCc1ccc(Cl)cc1)c1ccc(CSCc2cccc(Cl)c2)o1,–,inactive: -23.9%
CCC(C(=O)Nc1ccc(C(=O)OC)cc1)n1nc(-c2ccc(C)cc2)c2c(c1=O)CCCC2 (stereo not drawn),inactive,–
CCOc1cc(C2Nc3ccccc3-c3nnc(SCc4ccccc4)nc3O2)ccc1OC (stereo not drawn),–,inactive: 4.39%
Cc1cc(Br)ccc1NC(=O)C(Cc1ccccc1)NS(=O)(=O)c1ccc(Br)s1 (stereo not drawn),inactive,–
C=C(C)Cn1c(SCC(=O)c2ccc(OC)cc2)nc2sc3c(c2c1=O)CCCC3,inactive,–
OCCn1cc(-c2ccc3c(c2)CCC3=NO)c(-c2ccncc2)n1,–,inactive: 11.9%
Cc1ccc(OCC(=O)Nc2cccc(OCc3cc(=O)n4ccccc4n3)c2)cc1C,inactive,–
Nc1nc(Nc2cccc(C(F)(F)F)c2)sc1C(=O)c1ccccc1,–,inactive: -7.27%
Cc1cc(C)c2c(CC(=O)Nc3ccc(S(=O)(=O)N4CCCC(C)C4)cc3)coc2c1 (stereo not drawn),–,inactive: 0.643%
C#CCn1c(COc2ccccc2C)nc2ccccc21,–,inactive: -28.8%
COc1cccc(CNC(=O)c2cc3cccc4c3n2CC(C)S4)c1OC (stereo not drawn),–,inactive: -11%
CCN(Cc1ccccc1)C(=O)C1CCN(c2ncnc3c2nc2n3CCCCC2)CC1,–,inactive: 20.5%
Cc1cccc(N(C)C(=O)CN2C(=O)COc3ccc(S(=O)(=O)N4CCCCCC4)cc32)c1,inactive,–
Cn1c(CNC(=O)CSc2n[nH]c(-c3ccccc3Cl)n2)nc2ccccc21,–,inactive: -1.73%
COc1cc(OC)c(OC)cc1CNCCSc1nnnn1-c1ccccc1,–,inactive: 4.17%
Cc1ccc(-n2cc(-c3ccccc3)c3c(NC4CCCC4)ncnc32)cc1,–,inactive: -9.45%
Cc1ccc(-c2noc(-c3ccc(N4CCC(C)CC4)c([N+](=O)[O-])c3)n2)cc1,inactive,–
COc1cc2c(=O)c(S(=O)(=O)c3ccc(F)cc3)cn(Cc3ccccc3C)c2cc1OC,inactive,–
O=C(c1ccc(Br)cc1)N(Cc1cccs1)c1ccc(F)cc1,inactive,–

SMILES,outcome,"activity change, negative = inhibition"
CN1CCN(C(=O)Cn2ncc3c4ccccc4n(Cc4ccc(F)cc4)c3c2=O)CC1,–,inactive: -7.21%
COc1cc2c(cc1OC)C(COc1ccc(F)cc1)N(C(=O)c1cccc(F)c1)CC2 (stereo not drawn),–,inactive: 21.4%
Cc1nc2nc(SCC(=O)Nc3ccccc3Cl)nn2c(C)c1Cc1ccccc1,inactive,–
COc1ccc(-c2cnc(C)o2)cc1S(=O)(=O)Nc1ccc(F)cc1F,inactive,–
COc1cc(OC)c(NC(=O)c2cn(C3CCCC3)c(=O)c3c2c2ccccc2n3C)cc1Cl,–,inactive: 4.69%
Cc1cc(N(CCO)Cc2ccccc2)n2nc(-c3ccc(C(C)(C)C)cc3)nc2n1,–,inactive: -4.1%
Cc1cccn2c(=O)c(/C=C(\C#N)c3nc4ccccc4s3)c(Oc3ccc(F)cc3)nc12,–,inactive: -17.2%
Cc1noc(/C=C/c2cccs2)c1S(=O)(=O)N1CCC(C(=O)NCc2ccc(Cl)cc2)CC1,–,inactive: 3.39%
COc1cccc(C(=O)Nc2ccccc2OCc2cc(=O)n3ccccc3n2)c1,–,inactive: 12.3%
CCCOc1ccc(C2C(=O)N(C3CCCCCC3)CC(=O)N2CCC2=CCCCC2)cc1OC (stereo not drawn),–,inactive: 14.4%
CCOCCn1ccc2c(OCC(=O)Nc3cccc([N+](=O)[O-])c3)cccc2c1=O,–,inactive: -9.15%
COc1ccc(N(Cc2nnc3n2CCCCC3)C(=O)Nc2cccc(C)c2)cc1Cl,inactive,–
COc1ccccc1CN1CCNC(=O)C1=O,–,inactive: 1.64%
COc1ccc(NC(=O)C(CC(C)C)NC(=O)C2CCCCC2)cc1 (stereo not drawn),–,inactive: 2.35%
COc1ccccc1NC(=O)Cn1c(=O)n(-c2cccc(C)c2)c(=O)c2c1c1cc(C)ccc1n2C,–,inactive: 4%
O=C(Cn1ncc2c3ccccc3n(Cc3ccccc3)c2c1=O)NC1CCCCCC1,–,inactive: -8.55%
CCOc1ccc(CN2CCc3nc(N4CCN(c5ccccn5)CC4)ncc3C2)cc1OC,–,inactive: 11.2%
CCn1c(=N)n(CC(O)COc2ccccc2)c2ccccc21 (stereo not drawn),inactive,–
Cn1c(=O)c2cc(C(=O)NC3CCCCCC3)sc2c2ccccc21,–,inactive: -15.7%
CCCc1noc(-c2ccc(NCc3ccc(C)cc3)c([N+](=O)[O-])c2)n1,–,inactive: 9.84%
Cc1oc2c(cc(NS(=O)(=O)c3ccc(Cl)cc3)c3ccccc32)c1C(=O)OCc1ccccc1,inactive,–
CCCc1cnc2c(c1SCc1cccc(F)c1)c(=O)n(C)c(=O)n2C,–,inactive: -21.1%
Cc1ccccc1-c1cc2nccc(-c3cc(Cl)ccc3O)n2n1,–,inactive: -1.62%
Cc1ccc(C(=O)c2cn(Cc3ccccc3C)c3nc(C)ccc3c2=O)cc1,–,inactive: -2.49%
COc1ccc(-c2cn3c(n2)sc2cc(C(=O)NCc4cccc(F)c4)ccc23)cc1,–,inactive: 1.86%

SMILES,outcome,"activity change, negative = inhibition"
Cc1ccc(NC(=O)Cn2c(=O)n(Cc3ccc4c(c3)OCO4)c(=O)c3ccccc32)cc1,inactive,–
Cc1nc(C)c(CCNS(=O)(=O)c2ccc(F)cc2)s1,–,inactive: 4.8%
Cc1ccc(NC(=O)CN2C(=O)COc3ccc(S(=O)(=O)NC4CCCC4)cc32)c(Cl)c1,–,inactive: -12.8%
CCCCNC(=O)CSc1nc2cc3c(cc2c(=O)n1CCCCCC(=O)NCc1ccc(OC)cc1)OCO3,–,inactive: -3.12%
COc1ccc(CNC(=O)c2cnc3sc(N4CCCC4)nn3c2=O)c(OC)c1,–,inactive: 5.45%
CCc1ccc(Nc2nnc(-n3nc(C)cc3C)c3ccccc23)cc1,–,inactive: -0.752%
COc1cccc(NC(=O)CCc2c(C)nc3ncnn3c2C)c1,inactive,–
Cc1ccccc1NC(=O)CCN1C(=O)c2ccccc2Sc2ncccc21,inactive,–
COc1ccc(-c2nc(SCC(=O)NC3CCCC3)c(-c3ccc(C)cc3)[nH]2)cc1OC,–,inactive: 53.4%
CCOc1ccc(NC(=O)C(=O)NCC(c2cccnc2)N2CCc3ccccc32)cc1 (stereo not drawn),–,inactive: 6.5%
COc1ccc(C2CC(=O)N(CC(=O)Nc3ccc(C)c(Cl)c3)c3ccccc3S2)cc1OC (stereo not drawn),–,inactive: 24.9%
CCOC(=O)C1CCCN(S(=O)(=O)c2ccc3c(c2)oc(=O)n3C)C1 (stereo not drawn),–,inactive: -7.77%
COc1ccc(N(Cc2cccs2)C(=O)Nc2cccc(Cl)c2)cc1,–,inactive: 2.85%
COc1ccc(CNC(=O)Cc2csc3nc(-c4ccc(F)cc4)cn23)cc1,–,inactive: -28.1%
Cc1ccccc1C(=O)NCCc1sc(-c2ccc(Cl)cc2)nc1C,inactive,–
O=C(CSc1ncc2c(n1)-c1ccccc1N(Cc1ccc(F)cc1)S2(=O)=O)NCCc1ccccc1,–,inactive: 2.3%
Cc1cc(C)cc(C(=O)n2nc(C)c(S(=O)(=O)N3CCOCC3)c2C)c1,inactive,–
Cc1ccc(-n2c(=O)c3ccc(C(=O)NCc4ccccc4Cl)cc3n(CC(=O)Nc3ccc(C)cc3C)c2=O)cc1,inactive,–
Cc1cn2c(=O)cc(COc3ccc(NC(=O)COc4ccccc4)cc3)nc2s1,–,inactive: -4.87%
COc1cc(NC(=O)CN(c2cc(C)cc(C)c2)S(=O)(=O)c2c(C)[nH]c(=O)[nH]c2=O)cc(OC)c1,–,inactive: 0.693%
C#CC(C)(CC)NC(=O)Cn1nnc(-c2ccc(OCc3c(F)cccc3Cl)cc2)n1 (stereo not drawn),–,inactive: 6.59%
CCOc1ccc(-c2nc3ccccc3c(=O)o2)cc1,–,inactive: 4.7%
Cc1ccc(Nc2cc(C)nc3nncn23)c(C)c1,–,inactive: 1.43%
CCOC(=O)c1cccc(NC(=O)[C@H](CSCc2ccccc2)N2Cc3ccccc3C2=O)c1,inactive,–
CCOC(=O)c1c(NC(=O)c2ccc(F)cc2)sc2c1CCC(CC)C2 (stereo not drawn),inactive,–

SMILES,outcome,"activity change, negative = inhibition"
Cn1cc(-c2cc3n(n2)CCC(=O)N3CCCC(=O)NCc2ccccc2Cl)c2ccccc21,–,inactive: 1.99%
Cc1cc(C)cc(Nc2nc3cc(Cl)c(Cl)cc3nc2-n2nc(C)cc2C)c1,–,inactive: 5.94%
CC(C)CCn1c(SCc2cccc(F)c2)nc2ccsc2c1=O,inactive,–
CN1C(=O)c2[nH]nc(-c3ccc(F)cc3)c2C1c1cccc(O)c1 (stereo not drawn),inactive,–
O=c1[nH]c(C2CCCN(S(=O)(=O)c3ccccc3)C2)nc2c1nnn2Cc1ccc(OC(F)(F)F)cc1 (stereo not drawn),–,inactive: 19.6%
O=C(C1CCC(Cn2c(=O)c3sccc3n(Cc3ccc(F)cc3)c2=O)CC1)N1CCOCC1 (stereo not drawn),–,inactive: 1.06%
CN1C(=O)C2(c3ccccc31)N(c1ccc(Br)cc1)C(=O)CS2(=O)=O (stereo not drawn),–,inactive: -5.26%
COc1ccc2c(c1)-c1nc(NC(=O)c3cc(OC)c(OC)c(OC)c3)sc1CC2,–,inactive: -9.84%
CCc1ccc2oc(C(=O)NCc3ccccc3)cc(=O)c2c1,–,inactive: 12.3%
Cc1ccc(NC(=O)Cn2c(-c3nonc3N)nc3ccccc32)c(Br)c1,–,inactive: -11.9%
Cc1cc(C)cc(C(=O)N2CC(=O)Nc3ccc(Br)cc3C2c2ccccc2)c1 (stereo not drawn),inactive,–
CCCCOc1ccc(C2C(=O)N(C3CCCCC3)CC(=O)N2CCCC)cc1 (stereo not drawn),–,inactive: 4.86%
Cc1ccc(-n2ncc(C(=O)NCCCN3CCc4ccccc4C3)c2C2CCN(C(=O)OC(C)(C)C)CC2)c(C)c1,–,inactive: -3.29%
CCCCN(CC)CCCNC(=O)c1ccc2c(c1)NC(=O)CN2C,inactive,–
Cc1ccc(OCCOCCn2c(-c3ccc(Cl)cc3)nc3ccccc3c2=O)cc1,inactive,–
COc1cccc(CNC(=O)CCc2c(C)c3ccc(O)c(C)c3oc2=O)c1,inactive,–
CCOC(=O)c1noc2ncn(CC(=O)Nc3ccccc3OC)c(=O)c12,inactive,–
COc1cccc(CNC(=O)Cn2nc(N3CCN(c4ccccc4OC)CC3)ccc2=O)c1,–,inactive: 4.14%
COc1ccc(-n2c(SCc3ccccc3)nc3c([nH]c4ccccc43)c2=O)cc1,inactive,–
COc1ccc2c(c1)CCc1c(C(=O)Nc3ccc(C#N)cc3)noc1-2,inactive,–
CCOc1ccc(-n2c(=O)c3c(C)c(C)sc3n(Cc3ccccc3C)c2=O)cc1,–,inactive: 0.159%
Cc1c(Cl)cccc1NC(=O)C(C)n1c(=O)cc(C)c2c(C)nn(-c3ccccc3)c21 (stereo not drawn),–,inactive: 0.824%
COc1ccc(C)cc1NC(=O)CN1C(=O)COc2ccc(S(=O)(=O)N3CCC(C)CC3)cc21,inactive,–
